# Screen size: about 45,000 compounds; about 200 (0.44%) were called active. About 7% were inconclusive and are not listed. Calls come from the whole dose curve; as a rule, active = well fitted activation curve with a large enough effect; inconclusive = small, poorly fitted or top-dose-only effect; inactive = no such curve, though single readings can be large or run the other way. This is one part of the list.
# Assay: qHTS of TDP-43 Inhibitors: NCGC Sytravon Library Screen; note: 0% is about no effect; nearly all actives have a fitted effect of over 55% in size
# Conditions: yeast TDP-43 toxicity rescue, BacTiter-Glo growth, 24 h; series mostly up to 46.1 µM; growth rescue (activation): at the top concentration
# Summary of the method: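 TDP-43-expressing yeast, pregrown in raffinose, seeded at OD600 0.02 in galactose medium with compound for 24 hr at 30 deg C. Growth read by BacTiter-Glo luminescence, so rescue of toxicity appears as activation.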
row,SMILES,growth rescue (activation)
1,Cc1cc(=O)oc2cc(OCCCC[n+]3ccccc3)ccc12,inactive: -3.78%
2,CC(=O)c1cccc(NC(=O)c2cc(=O)[nH]c3ccc(S(=O)(=O)N4CCOCC4)cc23)c1,inactive: 9.75%
3,Cc1ccc(/C=N/NC(=O)CN2CCN(Cc3ccccc3Cl)CC2)o1,inactive: -4.47%
4,CN(C)S(=O)(=O)c1ccc(Cl)c(C(=O)Nc2nc3ccccc3[nH]2)c1,inactive: -0.912%
5,CCOc1ccc(CN(C)C(=O)CCN2C(=O)c3ccccc3C2=O)cc1OC,inactive: 9%
6,O=C(Nc1ccc(S(=O)(=O)N2CCCC2)cc1)c1ccc(F)cc1,inactive: 4.52%
7,Cc1cc(-c2n[nH]c(=S)n2/N=C/c2sccc2C)n[nH]1,inactive: 9.17%
8,O=C(NCc1ccco1)c1ccc(Cl)c(S(=O)(=O)Nc2ccccc2)c1,inactive: 10.1%
9,N=C(c1cccc([N+](=O)[O-])c1)N1CCCCC1,inactive: 0.021%
10,O=C(O)CC(NCc1ccco1)C(=O)OCCCl (stereo not drawn),inactive: -10.1%
11,Cc1cccc(NC(=O)c2ccc(S(=O)(=O)N3CCCC3)cc2)c1C,inactive: -15.1%
12,CC(=O)Nc1ccc(S(=O)(=O)N2CCSc3ccccc32)cc1,inactive: 6.58%
13,O=C(O)c1cc2nccc(-c3ccc(F)cc3)n2n1,inactive: -1.65%
14,CCC(C)NC(=S)N1CCN(C(c2ccccc2)c2ccccc2)CC1 (stereo not drawn),inactive: 1.5%
15,CCOC(=O)C1(CCc2ccccc2)CCN(Cc2ccc(OC)cc2)CC1,inactive: -16.5%
16,COc1cccc(-c2cnc(C(O)c3cc(C)c(OC)c(C)c3)[nH]2)c1 (stereo not drawn),inactive: -6.03%
17,COc1ccc(CCNC(=O)Nc2nc(C(N)Cc3ccccc3)cs2)cc1OC (stereo not drawn),inactive: 11.1%
18,CCc1ccc(C2c3[nH]c4ccccc4c3CCN2C(=O)c2ccc(=O)n(C)n2)cc1 (stereo not drawn),inactive: 15.5%
19,COc1ccc2c(c1)-c1nc(/N=C/c3c(O)ccc4ccccc34)sc1CC2,inactive: 4.21%
20,CCC(=O)N(Cc1cc(=O)[nH]c2ccccc12)c1ccccc1OC,inactive: -6.58%
21,N#Cc1nc(Cc2ccccc2)oc1N1CCCC1,inactive: 29.1%
22,O=C(CCCC(=O)N(CC(=O)NC1CCCC1)C1CCCC1)Nc1ccccn1,inactive: 7.18%
23,COc1cccc(CN(C(=O)c2ccco2)C(C(=O)NC2CCCC2)c2cccnc2)c1 (stereo not drawn),inactive: 11.2%

row,SMILES,growth rescue (activation)
1,CN(Cc1ccco1)C(=O)CN1C(=O)NC2(CCCC2)C1=O,inactive: 13.5%
2,O=C(O)CCN=CC1=C(O)CC(c2ccccc2)CC1=O (stereo not drawn),inactive: -20.1%
3,CC(=O)Cc1nsc(Nc2ccc3c(c2)OCCO3)n1,inactive: -5.44%
4,O=C(/C=C/Nc1ccc(Cc2ccc(N/C=C/C(=O)C(F)(F)F)cc2)cc1)C(F)(F)F,inactive: 19.3%
5,CC1=NN(C(=O)CSCc2ccccc2)C(O)(c2ccc(F)cc2)C1 (stereo not drawn),inactive: -3.55%
6,COc1cccc(C(=O)Nc2nnc(SCC(=O)NC3CC3)s2)c1,inactive: -0.498%
7,Cc1ccc(C(=O)OCC(=O)c2ccc[nH]2)s1,inactive: 19.8%
8,O=C(N/N=C/c1ccc(O)cc1O)NC12CC3CC(CC(C3)C1)C2,inactive: 17.3%
9,CNc1ccc(S(=O)(=O)NC)cc1[N+](=O)[O-],inactive: -7.34%
10,CCCCCc1c(C)[nH]c2nc3ccccc3n2c1=O,inactive: 1.36%
11,COC(=O)C1=C(C)NC(C)=C(C(=O)OC)C1c1ccc(OC(=O)c2ccco2)cc1,inactive: 9.08%
12,COc1cccc(-c2cnc(C(O)c3ccccc3)[nH]2)c1 (stereo not drawn),inactive: -1.68%
13,COc1ccc(NC(=O)CCC(=O)c2cccs2)cc1S(=O)(=O)Nc1ccccc1Cl,inactive: 24%
14,Cc1ccc(S(=O)(=O)NC(CC(=O)O)c2ccc(F)cc2)cc1 (stereo not drawn),inactive: 13.5%
15,CCOC(=O)C1CCCN(C(=O)c2ccc([N+](=O)[O-])cc2)C1 (stereo not drawn),inactive: 8.21%
16,C=CCSc1nc2sc3c(c2c(=O)n1CC=C)CCc1ccccc1-3,inactive: -3.23%
17,CC(C)CNC(=O)CN(c1ccccc1)S(=O)(=O)c1ccccc1[N+](=O)[O-],inactive: 15.3%
18,O=[N+]([O-])c1cc(C(F)(F)F)cc([N+](=O)[O-])c1N1CCN(S(=O)(=O)c2ccccc2)CC1,inactive: 18.2%
19,Cc1ccc2cc(C#N)c(N3CCCN(C(=S)NCCCN(C)C)CC3)nc2c1,inactive: 1.9%
20,O=C(CCS(=O)(=O)c1cccs1)Nc1ccc(C(=O)NC2CCCC2)cc1,inactive: -5.98%
21,CCOc1ccc(NC(=O)C2C(C(=O)O)C3(Cl)C(Cl)=C(Cl)C2(Cl)C3(Cl)Cl)cc1 (stereo not drawn),inactive: 12.6%
22,Cc1cc(C(=O)COC(=O)c2nn(C)c(=O)c3ccccc23)c(C)n1C,inactive: -5.62%
23,COc1cc(NC(=O)c2ccccc2)ccc1NC(=O)c1cc2ccccc2o1,inactive: -0.433%

row,SMILES,growth rescue (activation)
1,NC(=O)C1CCCN(C(=O)CCC(=O)c2cccs2)C1 (stereo not drawn),inactive: 21.7%
2,COc1ccc(CNC(=O)C(c2ccc(C)o2)N(C(=O)c2snc(C(N)=O)c2N)c2ccccc2OC)cc1 (stereo not drawn),inactive: 8.82%
3,Cc1nn(C)c(C(=O)NNC(=O)Nc2cccc(C(F)(F)F)c2)c1Cl,inactive: -0.363%
4,CC(C)(C)c1ccc(CC(=O)N2CCC2(C)C(=O)Nc2ccc3[nH]ncc3c2)cc1 (stereo not drawn),inactive: 9.12%
5,COc1ccc(C(C)=O)cc1CN(c1ccccc1OC)S(=O)(=O)c1cccs1,inactive: 13.5%
6,CCn1c(SCC(=O)O)nnc1-c1ccccc1OC,inactive: 10.5%
7,CCN(C(=O)CSc1nnc(C)n1-c1ccccc1)C1CCS(=O)(=O)C1 (stereo not drawn),inactive: -4.67%
8,COc1ccc(C(NC(=O)C2CCN(CCc3ccccc3)CC2)c2ccccn2)cc1 (stereo not drawn),inactive: 1.7%
9,COc1ccc2cnnc(SCC(=O)Nc3ccc(C(=O)O)cc3)c2c1OC,inactive: 6.9%
10,CNc1snc(C)c1C(=O)OCC(=O)Nc1ccc(C)cc1F,inactive: 9.72%
11,C/C=C(\C)CN1CCC(Oc2cccc(C(=O)NCc3ccccn3)c2)CC1,inactive: -6.44%
12,O=c1c(-c2ccc3c(c2)OCCO3)coc2cc(OC3OC(CO)C(O)C(O)C3O)ccc12 (stereo not drawn),inactive: 15.1%
13,CCNC(=S)N1CCNC(=O)C1CC(=O)OC (stereo not drawn),inactive: -0.596%
14,COc1ccc(CCNC(=O)COC(=O)COc2ccc(C#N)cc2)cc1,inactive: 3.55%
15,Cc1ccccc1N(CC(=O)Nc1ccccc1C(=O)NCc1ccco1)S(=O)(=O)c1ccccc1,inactive: -16.4%
16,Cc1cc2c(cc1C)/C(=N/NC(=O)c1ccccn1)CCC2,inactive: 11.9%
17,NC(=O)C1CCN(c2ccc([N+](=O)[O-])cc2Cl)CC1,inactive: 21%
18,COc1ccc(NC(=O)CC2CCCC2)cc1S(=O)(=O)N1CCCCC1,inactive: 21%
19,CC(Sc1nnc(CC(=O)Nc2ccccc2F)n1C)C(=O)Nc1nccs1 (stereo not drawn),inactive: 9.38%
20,COc1cc(C)nc(N2CCCC(C(=O)Nc3cc(Cl)ccc3OC)C2)n1 (stereo not drawn),inactive: -7.87%
21,Cn1c(CCNC(=O)c2ccco2)nc2ccccc21,inactive: 10.8%
22,O=C(O)C1=NN(c2ccccc2)C(=O)CC1,inactive: 5.74%
